Measurements from article PMC6265451.
These are yes or no findings as the source states them, for the method shown. Some entries that bind do so weakly or less than the wild type.

By UniProt entry, the sequences of proteins in these tests, tags left out.
UniProt P29468: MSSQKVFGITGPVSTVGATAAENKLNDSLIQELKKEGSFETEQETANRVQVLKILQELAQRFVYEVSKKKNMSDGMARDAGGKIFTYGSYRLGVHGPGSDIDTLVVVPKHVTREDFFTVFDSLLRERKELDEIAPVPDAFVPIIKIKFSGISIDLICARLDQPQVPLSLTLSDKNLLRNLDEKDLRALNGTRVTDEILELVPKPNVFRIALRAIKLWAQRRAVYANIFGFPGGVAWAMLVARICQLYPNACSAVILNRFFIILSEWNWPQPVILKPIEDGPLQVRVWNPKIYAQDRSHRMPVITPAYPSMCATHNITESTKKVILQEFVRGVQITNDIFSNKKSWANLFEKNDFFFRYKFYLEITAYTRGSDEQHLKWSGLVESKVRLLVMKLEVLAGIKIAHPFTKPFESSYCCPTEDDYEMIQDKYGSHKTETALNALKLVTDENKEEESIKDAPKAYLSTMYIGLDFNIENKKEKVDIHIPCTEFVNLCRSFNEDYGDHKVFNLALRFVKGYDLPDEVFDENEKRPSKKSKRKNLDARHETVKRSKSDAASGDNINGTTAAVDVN
UniProt P32598: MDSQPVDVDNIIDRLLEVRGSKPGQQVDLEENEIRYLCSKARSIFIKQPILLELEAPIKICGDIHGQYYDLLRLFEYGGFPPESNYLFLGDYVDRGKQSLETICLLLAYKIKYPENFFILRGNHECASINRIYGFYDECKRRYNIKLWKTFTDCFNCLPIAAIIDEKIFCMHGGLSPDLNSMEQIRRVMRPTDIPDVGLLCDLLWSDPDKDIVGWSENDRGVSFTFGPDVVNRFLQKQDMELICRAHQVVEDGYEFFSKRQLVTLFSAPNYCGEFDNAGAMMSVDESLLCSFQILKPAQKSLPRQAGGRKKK
UniProt P53538: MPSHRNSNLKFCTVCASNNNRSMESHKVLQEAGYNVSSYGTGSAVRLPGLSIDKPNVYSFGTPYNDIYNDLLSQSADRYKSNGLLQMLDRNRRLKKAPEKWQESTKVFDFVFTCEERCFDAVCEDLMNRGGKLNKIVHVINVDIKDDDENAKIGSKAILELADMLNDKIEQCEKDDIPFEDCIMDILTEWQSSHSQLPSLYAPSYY

Tests used:
[1] = target: T1, Pta1-TAPS (S. cerevisiae) (UniProt Q01329); experiment: SEC; TAPS affinity purification from tagged yeast strain, then Superose 6 PC 3.2/30 in 20 mM HEPES pH 7.9, 150 mM KCl, 3 mM DTT, 0.5 mM Mg(OAc)2, 0.5 mM MnCl2; fractions on Coomassie-stained SDS-PAGE
T1 sequence: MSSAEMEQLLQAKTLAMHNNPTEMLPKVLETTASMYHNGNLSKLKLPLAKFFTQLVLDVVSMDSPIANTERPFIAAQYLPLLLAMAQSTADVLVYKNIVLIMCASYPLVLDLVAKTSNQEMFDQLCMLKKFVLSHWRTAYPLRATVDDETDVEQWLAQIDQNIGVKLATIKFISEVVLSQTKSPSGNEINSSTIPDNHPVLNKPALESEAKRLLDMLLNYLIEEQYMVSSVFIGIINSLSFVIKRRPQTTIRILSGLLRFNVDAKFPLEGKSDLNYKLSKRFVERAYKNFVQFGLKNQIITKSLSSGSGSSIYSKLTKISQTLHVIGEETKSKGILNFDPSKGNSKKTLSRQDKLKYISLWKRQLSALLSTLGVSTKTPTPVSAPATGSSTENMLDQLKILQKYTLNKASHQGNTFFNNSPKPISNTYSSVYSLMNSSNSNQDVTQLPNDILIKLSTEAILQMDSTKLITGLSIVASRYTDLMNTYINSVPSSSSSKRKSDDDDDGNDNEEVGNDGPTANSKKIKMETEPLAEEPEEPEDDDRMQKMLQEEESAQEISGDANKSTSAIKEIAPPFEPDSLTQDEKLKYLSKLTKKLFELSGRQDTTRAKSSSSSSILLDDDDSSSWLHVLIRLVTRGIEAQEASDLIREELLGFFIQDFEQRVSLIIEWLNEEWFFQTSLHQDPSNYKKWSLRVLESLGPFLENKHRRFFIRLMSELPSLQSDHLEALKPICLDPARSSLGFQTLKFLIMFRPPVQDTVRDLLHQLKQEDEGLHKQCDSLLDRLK

[2] = target: Pap1-TAPS (S. cerevisiae) (UniProt P29468); experiment: as above
[3] = target: T2, Ref2-TAPS (S. cerevisiae) (UniProt P42073); experiment: as above
T2 sequence: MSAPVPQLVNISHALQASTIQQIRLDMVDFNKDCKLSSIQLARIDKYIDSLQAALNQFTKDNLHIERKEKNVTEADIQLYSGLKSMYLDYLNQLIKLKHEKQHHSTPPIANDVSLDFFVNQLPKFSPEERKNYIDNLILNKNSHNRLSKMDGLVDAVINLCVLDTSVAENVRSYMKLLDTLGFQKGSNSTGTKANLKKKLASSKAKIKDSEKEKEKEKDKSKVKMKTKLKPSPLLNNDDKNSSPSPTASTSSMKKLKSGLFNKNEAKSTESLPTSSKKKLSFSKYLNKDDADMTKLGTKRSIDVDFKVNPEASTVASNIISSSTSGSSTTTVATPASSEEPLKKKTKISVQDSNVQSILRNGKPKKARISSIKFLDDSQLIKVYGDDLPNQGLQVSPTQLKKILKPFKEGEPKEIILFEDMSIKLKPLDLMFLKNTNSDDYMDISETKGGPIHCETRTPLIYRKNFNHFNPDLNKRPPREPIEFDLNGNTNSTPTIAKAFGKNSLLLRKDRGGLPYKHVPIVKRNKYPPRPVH

[4] = target: T3, Mpe1-TAPS (S. cerevisiae) (UniProt P35728); experiment: as above
T3 sequence: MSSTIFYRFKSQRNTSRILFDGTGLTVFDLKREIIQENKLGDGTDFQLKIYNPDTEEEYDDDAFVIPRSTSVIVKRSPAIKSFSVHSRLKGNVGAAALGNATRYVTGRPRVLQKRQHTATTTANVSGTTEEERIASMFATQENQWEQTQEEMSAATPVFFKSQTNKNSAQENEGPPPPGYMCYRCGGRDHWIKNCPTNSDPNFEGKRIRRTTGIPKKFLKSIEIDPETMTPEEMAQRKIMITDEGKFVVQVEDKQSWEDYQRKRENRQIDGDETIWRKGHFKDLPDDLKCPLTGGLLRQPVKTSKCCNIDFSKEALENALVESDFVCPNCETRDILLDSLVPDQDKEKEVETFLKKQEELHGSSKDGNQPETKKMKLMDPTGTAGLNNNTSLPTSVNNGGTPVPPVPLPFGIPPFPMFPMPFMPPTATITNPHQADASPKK

[5] = target: T4, Syc1-TAPS (S. cerevisiae) (UniProt Q08553); experiment: as above
T4 sequence: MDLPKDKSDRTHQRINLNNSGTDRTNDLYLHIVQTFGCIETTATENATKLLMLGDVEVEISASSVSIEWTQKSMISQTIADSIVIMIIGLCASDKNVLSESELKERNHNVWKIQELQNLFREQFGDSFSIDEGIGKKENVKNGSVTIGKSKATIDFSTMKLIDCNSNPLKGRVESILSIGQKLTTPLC

[6] = target: T1, Pta1-TAPS (S. cerevisiae); experiment: anion exchange chromatography; TAPS affinity purification from tagged yeast strain (Ref2-tagged; Pta1-tagged with SYC1 deleted), then Mono Q 5/50 GL in 20 mM HEPES pH 7.9, 150 mM KCl, 3 mM DTT, 0.5 mM Mg(OAc)2; APT eluted at 260 mM KCl and CPF at 400 mM KCl
[7] = target: T2, Ref2-TAPS (S. cerevisiae); experiment: as above

Substance	binding [1]	binding [2]	binding [3]	binding [4]	binding [5]	binding [6]	binding [7]
Glc7 (from UniProt P32598 1-312) (enzyme)	binds	binds	binds	binds	binds	binds	binds
Pap1 (from UniProt P29468 1-568) (enzyme)	binds		binds		no binding	binds	binds
Ssu72 (from UniProt P53538 1-206) (enzyme)	binds	binds	binds	binds	binds	binds	binds
